According to the supplement of paper PMC8291772:
± gives the standard error. The list shows a part of the results.

These sequences were tested against terminal deoxynucleotidyl transferase (calf thymus) (UniProt P06526) (assay: TdT poly-dT extension signal (Cy3 hybridisation fluorescence, uncapped minus capped) (fluorescence a.u.); higher = more efficient initiation of TdT extension). Details: initiator chemistry: L-DNA (mirror-image), free 5'-OH (3'-tethered via HEG linker).
Description: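 All mono- to pentamer D-DNA or L-DNA initiators were made by forward (3'->5') photolithographic in situ synthesis on glass on a hexaethylene glycol linker, leaving a free 5'-OH. Each was made in uncapped and DMTr-dT-capped versions, about 11 replicates each. Arrays were extended with calf thymus TdT (0.2 U/uL), 100 uM dTTP and 0.25 mM CoCl2 for 120 min at 37 C, hybridised with an rA18-Cy3 probe and scanned at 532 nm. The value is the mean uncapped minus the mean capped signal. IDs read 5'->3'. L-DNA is mirror-image; D-DNA 5'-OH initiators were below LOD (no extension).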

Sequence of UniProt P06526 (P06526 whole entry): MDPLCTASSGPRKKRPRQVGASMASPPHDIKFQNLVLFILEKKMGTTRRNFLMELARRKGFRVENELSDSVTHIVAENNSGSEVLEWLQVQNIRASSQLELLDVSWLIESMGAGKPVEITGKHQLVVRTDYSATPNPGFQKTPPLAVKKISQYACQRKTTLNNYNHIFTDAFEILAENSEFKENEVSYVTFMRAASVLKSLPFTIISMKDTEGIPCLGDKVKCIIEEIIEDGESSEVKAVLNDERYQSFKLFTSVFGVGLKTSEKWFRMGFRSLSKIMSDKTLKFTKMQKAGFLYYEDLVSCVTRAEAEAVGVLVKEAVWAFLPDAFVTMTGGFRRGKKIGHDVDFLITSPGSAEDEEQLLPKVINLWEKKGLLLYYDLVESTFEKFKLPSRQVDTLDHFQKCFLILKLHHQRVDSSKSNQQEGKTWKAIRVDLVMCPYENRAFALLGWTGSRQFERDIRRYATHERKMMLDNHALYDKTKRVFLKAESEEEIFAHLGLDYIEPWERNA

Sequence	TdT poly-dT extension signal
CCAAG	120 ± 9.5
AAGTT	31.4 ± 4.1
CTGGT	116 ± 6.9
GCGTT	45.1 ± 5.2
GACAT	97.5 ± 6.6
GTATC	132 ± 12
AATTC	76.8 ± 8.4
ACTTT	70.7 ± 5.3
CCTGC	61.6 ± 5.2
GGAGT	69.5 ± 4.3
CAAT	75.7 ± 9.8
GGTTT	67.3 ± 7.5
CGTCT	42.8 ± 5.1
CTGCC	106 ± 12
GACA	97.2 ± 8.2
ACAC	94.6 ± 5.8
CCAT	96.1 ± 12
CAGCA	49.3 ± 3.8
CAAAA	111 ± 8.8
TTGAA	339 ± 42
TCGGT	125 ± 12
GATC	77.5 ± 6.2
AGTCA	40.6 ± 5.2
TTAAC	377 ± 27

Sequence	TdT poly-dT extension signal
AATCT	80.2 ± 13
CAGAA	73.9 ± 6.4
CTTCG	133 ± 16
CGATA	72.3 ± 7.8
AGAGG	78.9 ± 7
CAGAT	54.1 ± 7.5
CGTAA	65.8 ± 9.3
CCTAG	92.4 ± 6.2
TCTGT	144 ± 8.7
GCTTT	48.2 ± 6.4
AAGGG	52.9 ± 6.3
CTCGC	146 ± 15
TATG	169 ± 11
AGTTC	36.8 ± 6.5
AACGT	66.7 ± 5.7
ACTCA	79.4 ± 8.6
ATCAC	188 ± 16
GCCCC	74.3 ± 7.4
TAACT	155 ± 19
CCGC	75.7 ± 7.3
CCTCG	76.3 ± 5.5
TGCG	165 ± 17
TAGTA	91.6 ± 7.5
GGCTA	46.3 ± 4.8

Sequence	TdT poly-dT extension signal
ATCGA	206 ± 17
GTCAG	161 ± 18
ATACA	204 ± 18
ACCAA	101 ± 9
AGCCT	45.4 ± 5
TCCGG	280 ± 18
CTACA	148 ± 16
CGCA	54.4 ± 10
CTTGC	107 ± 7.2
AATCA	84.5 ± 5
TTCCC	358 ± 31
TAGTC	105 ± 6.7
CCGTG	59.9 ± 5.3
GACAA	98.3 ± 8.7
TGGTC	81.9 ± 6.5
CAAGT	63.5 ± 6
CTCTC	129 ± 8.6
AAGA	78 ± 11
GATGC	82.1 ± 9.4
GCTCT	77.8 ± 6.7
ACCG	78.2 ± 8
GAGTA	44.9 ± 6
CACCT	62.2 ± 6.2
ATACT	186 ± 17

Sequence	TdT poly-dT extension signal
CACGA	77.6 ± 7
CCAGA	91.5 ± 8.7
AGAG	50.4 ± 5.5
ATGAT	150 ± 9.9
AGGAT	50.4 ± 5.5
TTTAA	392 ± 18
GACGC	93 ± 9.5
TCCAA	255 ± 14
GACCT	77.6 ± 11
AAGCG	51.2 ± 6.2
TTTGG	350 ± 26
CACAA	76.2 ± 11
GCTGG	76.7 ± 7.2
GCAAG	103 ± 5.6
TTCAT	372 ± 18
CAAAG	109 ± 7.9
AGTGC	38.4 ± 6.6
GCTAA	92.6 ± 5.5
CCAGG	92 ± 9.6
TGGGG	118 ± 12
AGTCG	36.7 ± 4.2
TCCTT	191 ± 18
CGCTT	45.2 ± 3.8
GAGGA	63.7 ± 7.3

Sequence	TdT poly-dT extension signal
TATTC	117 ± 14
CCCAA	117 ± 11
TCCC	173 ± 16
CCATA	99.4 ± 8.2
GGTCG	50.4 ± 6.5
ACAA	85.9 ± 11
TAATC	183 ± 13
GAGGG	69.1 ± 13
CTATC	168 ± 13
TGTAA	143 ± 12
CCCC	88.9 ± 7.5
ACCA	87.8 ± 9.2
CTTAC	153 ± 14
CGAG	75.5 ± 12
GCTGT	64.2 ± 6.7
TTCGG	347 ± 20
GTAG	159 ± 11
AGAGC	70 ± 8.9
CAAAT	91.9 ± 6.4
TTGGC	283 ± 21
GACCA	82.8 ± 8.6
TCCAG	251 ± 13
GAGTG	61 ± 6.3
ATTGT	167 ± 9.2

Sequence	TdT poly-dT extension signal
ACCGC	73.4 ± 6.5
GTTTC	116 ± 9.9
CTTTA	106 ± 9.8
TAGGT	99.5 ± 6.8
GTGAC	144 ± 9
TGCGC	154 ± 12
CAGGG	58.4 ± 12
ATAAG	229 ± 14
AAAG	72.7 ± 7.4
TCGG	130 ± 12
GAGGT	55.2 ± 5.3
AACAT	88.7 ± 6.5
GCAT	67.6 ± 6.6
AATAA	128 ± 8.6
TTGTT	234 ± 18
CGGAA	50.7 ± 5.8
TCGTC	92.2 ± 10
TCCGC	195 ± 11
CATAC	66.3 ± 7.3
CTCGT	115 ± 9
GACCG	98.1 ± 7.5
TAAAA	227 ± 14
ACCTA	79.2 ± 9.5
ACCAT	97.4 ± 8.9

Sequence	TdT poly-dT extension signal
GCATC	65.3 ± 9.6
CTATT	162 ± 13
TTATA	384 ± 22
GGCGC	77.7 ± 6.3
AGCCC	33.7 ± 4.8
CTAAT	206 ± 15
GGGAC	76.3 ± 6.6
AACGG	77.3 ± 5.7
CATTC	151 ± 95
TAACC	156 ± 14
TCGCG	126 ± 20
CCAGC	90.8 ± 5.6
GAAAT	88.9 ± 8.3
TCAGG	179 ± 15
GCTTC	58.7 ± 5.8
GTGTA	102 ± 8.1
AAGTC	52.3 ± 3.9
CATGA	89.4 ± 9.4
GTGT	77.5 ± 8.8
ACCAC	99.1 ± 8.5
AATCG	76.2 ± 10
GTGAG	160 ± 13
GTTCA	101 ± 10
AAGGC	52.6 ± 3.7

Sequence	TdT poly-dT extension signal
TCCCA	189 ± 14
CACTG	62.3 ± 8.9
TGTGC	104 ± 11
ATGCC	109 ± 15
AGTAC	53 ± 7.1
CCGGT	59.2 ± 5.8
GCCCT	73.4 ± 8.2
ATTGC	134 ± 11
TACAG	190 ± 14
ATGAG	154 ± 10
CTCCA	140 ± 11
TGACG	168 ± 16
AAGTA	50.8 ± 4.8
TTCCA	299 ± 18
GAATA	83.7 ± 7.6
AAAT	76.4 ± 6.8
TGTGG	141 ± 7.8
CCAC	93 ± 7.6
TCAG	155 ± 9.6
CATAG	84 ± 9.1
GTGGG	172 ± 9.4
CGCCG	65.8 ± 7.1
CTCCG	127 ± 11
CGGTA	43.9 ± 5.9

Sequence	TdT poly-dT extension signal
CTGCG	113 ± 9.6
ACAGC	71 ± 5.8
GTTCG	126 ± 14
GTCAA	150 ± 9.5
CGTA	62.5 ± 9.9
CGCAA	59.8 ± 3.4
TCCTA	193 ± 17
AACAA	98.3 ± 10
ATTAG	195 ± 19
GCTGC	67.7 ± 5.5
CCACA	97 ± 7.8
GTAGG	181 ± 10
CTTGT	122 ± 9.3
CTTCA	130 ± 11
TTGTG	240 ± 22
ATGCT	116 ± 7.5
GGCAT	73 ± 8.1
GCTA	74.3 ± 8
GGATA	75.3 ± 8.1
GGTGC	53.2 ± 4.9
CCTTC	57.1 ± 6.1
CGCTA	55.8 ± 5
